Out of some 410,000 compounds screened, about 260 (0.063%) were called active. Inconclusive results, whose numbers are uncertain, are shown with a selection of clear calls. Calls come from the whole dose curve; as a rule, active = well fitted activation curve with a large enough effect; inconclusive = small, poorly fitted or top-dose-only effect; inactive = no such curve, though single readings can be large or run the other way. Potencies of inconclusive entries are left out as doubtful fits.
Assay: qHTS for compounds that reverse cellular toxicity of Amyloid beta (A-beta) peptide in yeast: Primary Screen; note: nearly all actives have a fitted effect of over 55% in size
Settings: yeast expressing A-beta42, growth rescue, OD600, 48 h; growth rescue: at 46.1 µM (top of the series), 0% DMSO, 100% iron-clioquinol control
In short: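 Yeast A-beta toxicity model in growth medium with pinned compounds, 48 h at 30 C; growth read as absorbance at 600 nm. Normalized to FeCl3/clioquinol equimolar mix (positive) and DMSO (negative).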
Potency is the fitted concentration of half-maximal effect; tags give direction and shape of the fitted curve.

Question: Which Potency does the source give for `COc1cc(C(=O)N/C(=C\c2cn(C)c3ccccc23)C(=O)NCCCN2CCOCC2)cc(OC)c1OC` here?
Answer: inconclusive [activator, single point]

Question: For `O=[N+]([O-])c1ccc(Nc2ccccc2)nc1`, which Potency is on record?
Answer: inconclusive [activator, partial curve, poor fit]

Question: With `CCOC(=O)CN1C(=O)N(c2ccc(C)c(C)c2)S(=O)(=O)c2ccccc21` as the molecule, how does the Potency read?
Answer: inactive

Question: Which Potency does the source give for `C=CCNC(=S)N1CCC(C(=O)c2ccc(Cl)cc2)CC1` here?
Answer: inconclusive [activator, single point]

Question: For `ClCc1nc2ccccc2c2ccccc12`, which Potency is on record?
Answer: inactive

Question: For `O=C(/C=C/c1ccco1)NC(=S)Nc1ccccc1N1CCCC1`, which Potency is on record?
Answer: inconclusive [activator, partial curve, poor fit]

Question: With `Cc1ccc(-n2nc(C(=O)N(C)c3ccc(C)c(C)c3)c3c4ccccc4n(C)c3c2=O)cc1` as the molecule, how does the Potency read?
Answer: inactive

Question: Which Potency does the source give for `Clc1ccccc1N=C1SCCS1` here?
Answer: inconclusive [activator, single point]

Question: Which Potency does the source give for `CCOc1ccc(NC(=S)NN(C)C(=S)Nc2ccc(OCC)cc2)cc1` here?
Answer: inconclusive [activator, partial curve, poor fit]

Question: Which Potency does the source give for `CC1=C/C(=N\NC(=S)NCCc2ccccc2)CC(C)(C)C1` here?
Answer: inconclusive [activator, full curve, poor fit]

Question: Which Potency does the source give for `C=CCOc1ccc(CNc2ccc(NC(=O)CCC)cc2)cc1OCC` here?
Answer: inactive

Question: For `Cc1ccc(C)c(OCc2nc3ccccc3n2C)c1`, which Potency is on record?
Answer: inconclusive [activator, partial curve, poor fit]

Question: With `Cc1ccc(S(=O)(=O)N(C)C[C@H]2Oc3ncc(-c4ccccc4)cc3C(=O)N([C@@H](C)CO)C[C@@H]2C)cc1` as the molecule, how does the Potency read?
Answer: inconclusive [activator, single point]

Question: Which Potency does the source give for `Cc1cccc(C)c1NC(=S)N(c1ccccc1)C(C)C` here?
Answer: inconclusive [activator, partial curve, poor fit]

Question: Which Potency does the source give for `O=C(NCc1ccc(F)cc1)c1cc(C2CCCCN2S(=O)(=O)c2ccccc2)on1` (stereo not drawn) here?
Answer: inconclusive [activator, single point]

Question: With `COc1cc(C2c3[nH]c4ccccc4c3C[C@H]3C(=O)N(C4CC4)CC(=O)N23)ccc1OC(C)C` (stereo partly drawn) as the molecule, how does the Potency read?
Answer: inconclusive [activator, single point]

Question: Which Potency does the source give for `Cc1cccc(Oc2coc3cc(O)ccc3c2=O)c1` here?
Answer: inconclusive [activator, single point]

Question: For `CC(=O)COc1ccc2c3c(c(=O)oc2c1C)CCCCC3`, which Potency is on record?
Answer: inactive

Question: For `CC(C)(C)c1cc(Cl)c(O)c(NC(=S)NC(=O)c2cccnc2)c1`, which Potency is on record?
Answer: inconclusive [activator, single point]

Question: Which Potency does the source give for `CCN(CC)S(=O)(=O)c1cc(-c2onc(C)c2C)ccc1OC` here?
Answer: inactive

Question: For `c1ccc2c3c([nH]c2c1)-c1[nH]ncc1CC3`, which Potency is on record?
Answer: inactive

Question: With `Cc1csc(NC(=O)CSc2ccc(-c3ccccn3)nn2)n1` as the molecule, how does the Potency read?
Answer: inconclusive [activator, single point]

Question: For `Cc1ccc(N(C)C(=O)c2cnc(N3CCOCC3)c3ccccc23)cc1C`, which Potency is on record?
Answer: inconclusive [activator, full curve, poor fit]

Question: Which Potency does the source give for `CNCc1c(OCc2ccccc2F)ccc2ccccc12` here?
Answer: inconclusive [activator, partial curve, poor fit]

Question: With `COc1ccc(-n2cnnc2SCC(=O)c2cc(C)n(Cc3cccs3)c2C)cc1` as the molecule, how does the Potency read?
Answer: inconclusive [activator, single point]

Question: With `CCC(C)(C)c1ccc(Oc2ccc(N)cc2)cc1` as the molecule, how does the Potency read?
Answer: inactive

Question: Which Potency does the source give for `CCNC(=S)Nc1ccc(Oc2ccccc2)cc1` here?
Answer: inconclusive [activator, partial curve]

Question: With `Cc1cccc(N=Nc2ccc(O)c3ncccc23)c1` as the molecule, how does the Potency read?
Answer: inconclusive [activator, single point]

Question: For `COc1cccc(C(NC(C)=O)c2nc(-c3ccc(OC)nc3)cs2)c1` (stereo not drawn), which Potency is on record?
Answer: inactive

Question: With `Cc1cccc(C)c1NC(=S)NNc1ncc(C(F)(F)F)cc1Cl` as the molecule, how does the Potency read?
Answer: inconclusive [activator, single point]

Question: For `O=C(c1c(F)cccc1F)N1CCCC(c2nc(-c3ccc(F)cc3)no2)C1` (stereo not drawn), which Potency is on record?
Answer: inconclusive [activator, single point]

Question: For `CCOc1ccc2nc(NC(=O)C3(C)CC3(Br)Br)sc2c1` (stereo not drawn), which Potency is on record?
Answer: inconclusive [activator, partial curve, poor fit]

Question: Which Potency does the source give for `CC1CC1C(=O)Nc1nc(-c2ccccn2)cs1` (stereo not drawn) here?
Answer: inconclusive [activator, single point]

Question: With `Cc1cccc(NC(=S)NC2CC3C=CC2C3)c1` (stereo not drawn) as the molecule, how does the Potency read?
Answer: inconclusive [activator, partial curve, poor fit]

Question: Which Potency does the source give for `CCOc1cc(/C=N\Nc2nc(-c3ccc(C)cc3)c(NC(C)=O)s2)ccc1O` here?
Answer: inconclusive [activator, single point]

Question: With `Cc1ccc(NC(=S)NCc2ccco2)c(C)c1` as the molecule, how does the Potency read?
Answer: inconclusive [activator, single point]

Question: Which Potency does the source give for `Cc1c(C(=O)NCc2cccc(Cl)c2)sc(=O)n1Cc1ccc(F)cc1` here?
Answer: inconclusive [activator, single point]

Question: Which Potency does the source give for `CS(=O)(=O)N1CCN(C(=O)Cc2ccc([N+](=O)[O-])cc2)CC1` here?
Answer: inactive

Question: For `Fc1cccc(COc2ccccc2C(=S)N2CCCC2)c1`, which Potency is on record?
Answer: inconclusive [activator, single point]

Question: With `Cc1nn(C(=O)c2cccc([N+](=O)[O-])c2)c(C)c1Sc1ccccc1` as the molecule, how does the Potency read?
Answer: inconclusive [activator, single point]

Question: With `COc1ccc(C/C(O)=C(\C#N)c2nc3ccccc3[nH]2)cc1OC` as the molecule, how does the Potency read?
Answer: inconclusive [activator, single point]

Question: Which Potency does the source give for `CC1CCCC(N2C(=O)NC(NC(=O)c3ccco3)(C(F)(F)F)C2=O)C1C` (stereo not drawn) here?
Answer: inconclusive [activator, partial curve, poor fit]

Question: Which Potency does the source give for `S=C(NNc1ccc2ccccc2c1)NC1CCCCC1` here?
Answer: inconclusive [activator, partial curve]
